Target: tectiviral gp7 homolog from the phage found in B. cereus HuB13-1 (tectiviral phage found in B. cereus …)
Experiment: SPR

B1: B. thuringiensis serovar israelensis LexA (natural protein)
chain: MEKLTKRQQDILDFIKLKVQEKGYPPSVREIGQAVGLASSSTVHGHLSRLEEKGYIRRDPTKPRAIEILGEDRMDTETQSVIQVPIVGKVTAGLPITAVESVEEHFPLPASIVAGADQVFMLRISGDSMIEAGIFDGDLVVVRQQQSAYNGEIVVALTEDNEATVKRFYKEKDHFRLQPENSSLEPIILKQVSVIGKVIGVYRDLH
- Kd: 274 nM

From article PMC9700832 (2022)
